In all, about 94,000 compounds went through this assay and about 6,200 (6.6%) were called active. The shares of active, inactive and inconclusive entries below differ from those in the screen. Calls come from the whole dose curve; as a rule, active = well fitted inhibition curve with a large enough effect; inconclusive = small, poorly fitted or top-dose-only effect; inactive = flat fitted curve, though single readings scatter. A potency beside an inconclusive call is a rough fit, not a confirmed value.
assay: Cytotoxic Profiling in HEK 293 Cell Line of Diverse Libraries Using Quantitative High-Throughput Screening; details: HEK 293 viability, ATP luminescence (CellTiter-Glo), 48-72 h; series mostly up to 115 µM; note: nearly all actives have a fitted effect of over 60% in size
Method in brief: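 HEK 293 cells at 250 cells/well were exposed to compounds by pintool transfer for 48 or 72 hr at 37 degree Celsius, 5% CO2. Viability was read as ATP-coupled luminescence with CellTiter-Glo after 10 min at room temperature.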
Potency is the fitted concentration of half-maximal effect; tags give direction and shape of the fitted curve.

Which Potency does the source give for `O=C(c1cn[nH]c1-c1ccc(F)cc1)N1CC2CC(C1)[C@H]1CCCC(=O)N1C2` (stereo not given in full) here?
The Potency was “inactive”.

For `O=C(c1cc(-c2cccc(C(F)(F)F)c2)c2nncn2n1)N1CCCC1`, which Potency is on record?
The Potency was “inactive”.

Which Potency does the source give for `COCCN1C(=O)CS(=O)(=O)C12CCN(C(=O)c1cc(F)ccc1F)CC2` here?
Its Potency is “inactive”.

Which Potency does the source give for `Cn1c([C@H]2CCN(Cc3cnc4ccccc4c3)C2)nc2ccccc21` here?
Its Potency is active: 70.8 µM.

Which Potency does the source give for `O=C(Cn1cnnn1)NCc1ccc(-c2cnc3c(Oc4ccccc4)nccn23)cc1` here?
The Potency was inconclusive: 100 µM [inhibitor, partial curve, poor fit].

With `COc1ccc(CC(=O)NC2CCN(c3nccc(Nc4ccc(OC)cc4)n3)CC2)cc1` as the molecule, how does the Potency read?
Its Potency is active: 39.8 µM.

Which Potency does the source give for `O=C(NC1CCCN(c2cc(-c3ccc(F)cc3)[nH]n2)C1)c1ccc2nc[nH]c2c1` (stereo not given) here?
Its Potency is inconclusive: 50.1 µM [inhibitor, partial curve, poor fit].

With `CCCCCNC(=O)[C@@H]1CCCN1c1ccnc2ccnn12` as the molecule, how does the Potency read?
Its Potency is inconclusive: 100 µM [inhibitor, partial curve, poor fit].

For `COc1ccccc1-c1cc(-c2ccccc2)nc2c(C)noc12`, which Potency is on record?
Its Potency is inconclusive: 100 µM [inhibitor, partial curve].

Which Potency does the source give for `Cc1nc2cccnc2n1CC1CCCN(S(=O)(=O)Cc2ccccc2Cl)C1` (stereo not given) here?
Its Potency is inconclusive: 50.1 µM [inhibitor, partial curve, poor fit].

With `CN(Cc1ccsc1)C(=O)c1ccc(C#CC(C)(C)O)o1` as the molecule, how does the Potency read?
Its Potency is inconclusive: 89.1 µM [inhibitor, partial curve, poor fit].

For `N#Cc1cccc(CN2CC[C@H](c3nc4ccccc4[nH]3)C2)c1`, which Potency is on record?
The Potency was active: 50.1 µM.

Which Potency does the source give for `Cc1cnn(C2(C(=O)O)CCN(S(=O)(=O)c3cnn(C)c3)CC2)c1` here?
Its Potency is inconclusive: 39.8 µM [inhibitor, single point].

For `COc1cccc(-c2cc3c(=O)n(CCNC(=O)c4ccccc4F)ccn3n2)c1`, which Potency is on record?
The Potency was inconclusive: 79.4 µM [inhibitor, partial curve].

For `O=C(NC1CCCC1)N1CCC2(C1)C(=O)N(CCc1ccccc1)c1ccccc12` (stereo not given), which Potency is on record?
The Potency was inconclusive: 50.1 µM [inhibitor, partial curve, poor fit].

For `Clc1cc(NCC2CCCCCC2)n2nccc2n1`, which Potency is on record?
Its Potency is inconclusive: 56.2 µM [inhibitor, partial curve, poor fit].

With `Cc1ccc(CNC(=O)c2ccc3c(c2)CN(Cc2ccncc2F)CCO3)cc1` as the molecule, how does the Potency read?
The Potency was inconclusive: 56.2 µM [inhibitor, partial curve, poor fit].

For `CN(C1CCOCC1)C1CCN(C(=O)NCCc2ccccc2)CC1`, which Potency is on record?
Its Potency is “inactive”.

With `COc1ccc(-c2nn(-c3ccccc3)cc2CN2CCN(C)CC2)c(F)c1` as the molecule, how does the Potency read?
The Potency was inconclusive: 50.1 µM [inhibitor, partial curve, poor fit].

For `COCC(=O)NC1CCC12CCN(C(=O)COc1ccc(F)cc1)CC2` (stereo not given), which Potency is on record?
The Potency was inconclusive: 89.1 µM [inhibitor, single point].

Which Potency does the source give for `c1ccc(Oc2nccn3c(-c4ccc(CNCc5ccn[nH]5)cc4)cnc23)cc1` here?
The Potency was inconclusive: 112 µM [inhibitor, single point].

With `CCN(CC)C(=O)Cn1cc(C(=O)N2CCCC2c2nc3ccccc3s2)nn1` (stereo not given) as the molecule, how does the Potency read?
Its Potency is “inactive”.

With `COc1ccc(F)cc1-c1cccc(C(=O)NCCNC(=O)C2CC2)c1` as the molecule, how does the Potency read?
The Potency was inconclusive: 70.8 µM [inhibitor, single point].

For `COc1ccc(CN2C=C(C(=O)OCc3noc(-c4ccccc4)n3)C(C)=NS2(=O)=O)cc1`, which Potency is on record?
Its Potency is inconclusive: 31.6 µM [inhibitor, full curve, poor fit].

For `COC[C@H]1C[C@H]2C[C@@H](O)[C@H](N(C)Cc3cccc(F)c3)[C@]2(O)CO1`, which Potency is on record?
Its Potency is inconclusive: 39.8 µM [inhibitor, single point].

With `O=C(NCc1ccc(F)cc1)c1cc(-c2cccc(C(F)(F)F)c2)c2cccn2n1` as the molecule, how does the Potency read?
Its Potency is active: 25.1 µM.

For `CCc1ccc(C(=O)N2CCC(Oc3ncccc3C(=O)N3CCCCC3)C2)cc1` (stereo not given), which Potency is on record?
The Potency was “inactive”.

With `COc1ccc(-n2nc(C3CCN(C(=O)C4CC4)CC3)[nH]c2=O)cc1` as the molecule, how does the Potency read?
Its Potency is “inactive”.

Which Potency does the source give for `Cc1cnc(C2CCC2)n1CC1CCN(C(=O)c2cccc(C#N)c2)C1` (stereo not given) here?
The Potency was “inactive”.

For `Cc1cccc(N2CCN(C(=O)C3CCCN(Cc4cccnc4)CCC(=O)NCC3)CC2)c1` (stereo not given), which Potency is on record?
The Potency was inconclusive: 89.1 µM [inhibitor, partial curve, poor fit].

For `Cc1ccc(S(=O)(=O)N2CCC(Oc3ncccc3C(=O)N3CCOCC3)C2)cc1F` (stereo not given), which Potency is on record?
Its Potency is “inactive”.

For `CNC(=O)c1cc(C2CC2)nc2onc(C3CCCN(C(=O)c4ccccc4C)C3)c12` (stereo not given), which Potency is on record?
Its Potency is “inactive”.

For `CNc1cc(C2CC(NC(=O)NCCc3ccccc3F)C2)nc(N)n1` (stereo not given), which Potency is on record?
Its Potency is “inactive”.

Which Potency does the source give for `O=C(CCC1CCN(C(=O)c2ccccc2F)CC1)NCC1CCCCC1` here?
Its Potency is inconclusive: 35.5 µM [inhibitor, partial curve, poor fit].

Which Potency does the source give for `COc1ccccc1Nc1ccnc(N2CCC[C@H]2C(=O)NC2CCCC2)n1` here?
The Potency was inconclusive: 44.7 µM [inhibitor, partial curve, poor fit].

For `CCOc1ncccc1C(=O)N1CCc2[nH]nc(-c3cccc(F)c3)c2C1`, which Potency is on record?
The Potency was “inactive”.

With `CN1c2cc(C(=O)NCc3ccc(OC(F)(F)F)cc3)ccc2C(=O)N2CCCCC21` (stereo not given) as the molecule, how does the Potency read?
Its Potency is inconclusive: 50.1 µM [inhibitor, partial curve, poor fit].

Which Potency does the source give for `CN1CCN(Cc2ccc(Nc3cnc4ccc(-c5ccccc5)nn34)cc2)CC1` here?
The Potency was active: 25.1 µM.

With `O=C(Cc1c[nH]c2ncc(-c3ccc(F)cc3)cc12)N1CCOCC1` as the molecule, how does the Potency read?
Its Potency is inconclusive: 100 µM [inhibitor, partial curve].

Which Potency does the source give for `O=C(NCc1cccc(C(F)(F)F)c1)c1ccc(N2CC3CC(C2)[C@H]2CCCC(=O)N2C3)nc1` (stereo not given in full) here?
Its Potency is inconclusive: 50.1 µM [inhibitor, partial curve, poor fit].

Which Potency does the source give for `CN(CC1Cc2ccccc2O1)C(=O)c1coc(COc2ccc3c(c2)OCO3)n1` (stereo not given) here?
The Potency was inconclusive: 89.1 µM [inhibitor, single point].

With `O=C(NCc1ccc(Cl)cc1)C1CCCN(c2cnn(Cc3ccccc3)c(=O)c2)C1` (stereo not given) as the molecule, how does the Potency read?
The Potency was inconclusive: 56.2 µM [inhibitor, partial curve, poor fit].

With `Cc1cc(C)cc(C(=O)N2[C@@H]3CC[C@H]2CC(NC(=O)c2ccc(F)cc2)C3)c1` (stereo not given in full) as the molecule, how does the Potency read?
Its Potency is inconclusive: 100 µM [inhibitor, single point].

With `COCC(=O)N[C@@H]1CN(Cc2cccc(OC)n2)CC[C@@H]1CO` as the molecule, how does the Potency read?
Its Potency is inconclusive: 100 µM [inhibitor, single point].

Which Potency does the source give for `Cc1cc(N2CCC3(CC2)CC(c2ccccc2)C(=O)N(C2CC2)C3)nc(N)n1` (stereo not given) here?
The Potency was inconclusive: 89.1 µM [inhibitor, single point].

For `CN(C)C(=O)CNC(=O)c1cccc(-c2ccc(C(F)(F)F)cc2)c1`, which Potency is on record?
The Potency was active: 39.8 µM.

With `O=C(NCc1cccs1)c1cc(C2CC2)nc2onc(C3CCCNC3)c12` (stereo not given) as the molecule, how does the Potency read?
The Potency was inconclusive: 79.4 µM [inhibitor, partial curve, poor fit].

Which Potency does the source give for `O=C(c1ccc(F)cc1F)N1CCN(c2cc(-c3ccccc3)[nH]n2)CC1` here?
The Potency was inconclusive: 31.6 µM [inhibitor, partial curve].

For `CC(C)(Oc1nn(Cc2cccc(Cl)c2)c2ccccc12)C(=O)NCCN1CCOCC1`, which Potency is on record?
Its Potency is active: 50.1 µM.

For `CCOC(=O)C1(Cc2ccc(F)cc2F)CCCN(C(=O)Cn2nc(C)cc2C)C1` (stereo not given), which Potency is on record?
Its Potency is inconclusive: 44.7 µM [inhibitor, partial curve].

With `COc1ccc(F)cc1-c1cccc(C(=O)NCCNC(=O)c2ccc(C(F)(F)F)cc2)c1` as the molecule, how does the Potency read?
The Potency was inconclusive: 56.2 µM [inhibitor, partial curve, poor fit].

For `O=C1CCN(Cc2cccc(OC(F)(F)F)c2)CCCCCCN1`, which Potency is on record?
Its Potency is inconclusive: 44.7 µM [inhibitor, partial curve, poor fit].

For `O=C1NCCCCCCN(C(=O)c2ccco2)[C@H]2C[C@H](c3nc(Cc4ccccc4)no3)C[C@@H]12`, which Potency is on record?
Its Potency is inconclusive: 35.5 µM [inhibitor, full curve, poor fit].

Which Potency does the source give for `CC1CN(C(=O)C2CCN(c3nc(-c4ccccc4)nc4c3CCC4)CC2)CCN1` (stereo not given) here?
Its Potency is inconclusive: 56.2 µM [inhibitor, partial curve, poor fit].

For `O=C(NC1CCC1)C1CCN(C(=O)c2ccc(-c3cncnc3)cc2)CC1`, which Potency is on record?
Its Potency is “inactive”.

Which Potency does the source give for `O=C(Cc1ccccn1)N1CCN(c2nccc(Nc3ccccc3Cl)n2)CC1` here?
Its Potency is inconclusive: 50.1 µM [inhibitor, partial curve, poor fit].

For `C=CCC1(CO)CCCN(C(=O)CCCn2nc(C)cc2C)C1` (stereo not given), which Potency is on record?
Its Potency is “inactive”.

For `CNC(=O)[C@H]1C[C@]2(CCCCN(CCO)C2=O)N(C(=O)CC(C)(C)C)[C@H]1c1ccccc1`, which Potency is on record?
Its Potency is “inactive”.

For `Cc1cccc(-c2nc3ccc(C(=O)NCc4ccc(F)cc4)cc3o2)n1`, which Potency is on record?
Its Potency is inconclusive: 44.7 µM [inhibitor, full curve, poor fit].

Which Potency does the source give for `O=C(Nc1cnc(-c2cccc(Cl)c2)nc1)c1ccc(F)cc1Cl` here?
The Potency was inconclusive: 50.1 µM [inhibitor, partial curve, poor fit].

Which Potency does the source give for `COCCNC(=O)[C@@H]1C[C@@H](O)CN1C1CCN(C(=O)c2cccs2)CC1` here?
Its Potency is “inactive”.

Which Potency does the source give for `Cc1ccc(S(=O)(=O)N(C)C2CCOc3ccccc32)cc1` (stereo not given) here?
The Potency was active: 100 µM.

For `COc1cc2nc(Cl)nc(N3CC4CCC(C3)N4CC(F)(F)F)c2cc1OC`, which Potency is on record?
Its Potency is “inactive”.

Which Potency does the source give for `O=C(Nc1ccc(F)cc1)[C@@H]1C[C@@H](c2cccc(C(F)(F)F)c2)N(CC2CCOCC2)C1` here?
The Potency was inconclusive: 31.6 µM [inhibitor, full curve, poor fit].

Which Potency does the source give for `CC(Oc1ccccc1)C(=O)N1CCN(c2cc(C(F)(F)F)ncn2)CC1` (stereo not given) here?
Its Potency is inconclusive: 56.2 µM [inhibitor, partial curve, poor fit].

Reference: PubChem BioAssay AID1345083 (National Center for Advancing Translational Sciences (NCATS), 2018)
